In all, about 350,000 compounds went through this assay and about 9,900 (2.8%) were called active. Inconclusive means that the source gave no clear call. Such entries were picked first, then a sample of the others. The call rests on the fitted dose curve; in most records, active means well fitted activation curve with a large enough effect; inconclusive means small, poorly fitted or top-dose-only effect; inactive means no such curve, though single readings can be large or run the other way. Potencies of inconclusive entries are left out as doubtful fits. A structure can be active in one record and inactive in another.
Experiment: A quantitative high throughput screen for small molecules that induce DNA re-replication in MCF 10a normal breast cells. Further: nearly all actives have a fitted effect of over 50% in size. On activity, positive = re-replication: % of control where 0% means no effect.
Settings: MCF 10A DNA re-replication, Hoechst nuclear intensity, 48 h; activity, positive = re-replication: at 46.1 µM (top of the series)
Potency means the concentration at half of the fitted maximal effect; tags describe the fitted curve by direction and shape.

Row | Structure (SMILES) | Potency | activity, positive = re-replication
1 | Nc1ccccc1/C=C/c1ccccc1N | inconclusive [activator, single point] | 
2 | CCn1c(SCC(=O)Nc2cc(C)on2)nc2c1c(=O)n(C)c(=O)n2C | inactive | 
3 | Cc1ccc(NC(=O)c2cccc(OCc3c(C)noc3C)c2)cc1S(=O)(=O)Nc1ccccc1Cl | inconclusive [activator, partial curve, poor fit] | 
4 | CC1(C)CC(=O)C2=C(C1)N(Cc1ccco1)C(=O)C2(NC(=O)C1CCCCC1)C(F)(F)F (stereo not given) | inactive | 
5 | O=C(CN1CCCCC1)Nc1cccc(Oc2ccccc2)c1 | inactive | 
6 | Cc1cccn2c(=O)c(/C=C(\C#N)C(=O)NC3CCS(=O)(=O)C3)c(Oc3ccc(F)cc3)nc12 (stereo not given) | inconclusive [activator, full curve] | 
7 | CCOc1ccc(N2C(=O)CC(N3CCN(C(=O)CN4CCCC4)CC3)C2=O)cc1 (stereo not given) | inconclusive [activator, single point] | 
8 | O=C(O)CCC(=O)N1N=C(c2c(-c3ccccc3)c3cc(Cl)ccc3[nH]c2=O)CC1c1cccs1 (stereo not given) | inconclusive [activator, partial curve, poor fit] | 
9 | CN1CCN(C(=O)C2=C[C@@H](C3CCCCC3)C[C@@H](OCc3ccc(CO)cc3)O2)CC1 | inconclusive [activator, full curve, poor fit] | 
10 | CCOc1ccc(NC(=O)CSc2nccn(-c3ccc4c(c3)OCCO4)c2=O)cc1 | inactive | 
11 | CC1CCN(C(=O)COC(=O)C2CCN(S(=O)(=O)c3c(Cl)cccc3Cl)CC2)CC1 | inactive | 
12 | CC(C)CCn1nc(C(=O)Nc2nc3c(s2)CCCC3)c2ccccc2c1=O | inconclusive [activator, partial curve, poor fit] | 
13 | CCC(C)(C)NC(=O)C(c1ccncc1)N(C(=O)Cn1nnc2ccccc21)c1cc2c(cc1C(C)=O)OCO2 (stereo not given) | inconclusive [activator, single point] | 
14 | Cc1ccc(N(CC(=O)Nc2cccc(N(C)S(C)(=O)=O)c2)S(C)(=O)=O)cc1 | inactive | 
15 | Cc1ccc(S(=O)(=O)N2CCC(=O)N(C(COCc3ccc(C(F)(F)F)cc3)C(C)C)CC2)cc1 (stereo not given) | inconclusive [activator, partial curve, poor fit] | 
16 | Cc1ccc(Nc2ncnc3sc(C)c(C)c23)cc1 | inactive | 
17 | Cc1cccc(C)c1OCc1cc(C(=O)N2CCN(C3CCCC3)CC2)no1 | inactive | 
18 | CCn1c(=O)n(CC)c2cc(N3CCCC3)c(NC(=O)c3c(F)cccc3F)cc21 | inconclusive [activator, single point] | 
19 | COc1cccc(CN2CCN(CCCc3ccccc3)C(CCO)C2)c1O (stereo not given) | inactive | 
20 | Cc1cc(N2CCOCC2)nc(-c2ccc(Br)cc2)n1 | inconclusive [activator, full curve, poor fit] | 
21 | CC(=O)Nc1nnc(SCC(=O)Nc2nc(C)cs2)s1 | inactive | 
22 | COc1ccc(C2=NN(C(=O)CSc3nnc(-c4ccccc4F)o3)C(c3ccco3)C2)cc1 (stereo not given) | inconclusive [activator, partial curve, poor fit] | 
23 | CC1CN(c2ncnc3c2c(-c2ccccc2)cn3-c2ccc(F)cc2)CC(C)O1 (stereo not given) | inconclusive [activator, single point] | 
24 | COc1ccc(-c2cc(C(=O)N(C)Cc3ccccc3)c3ccccc3n2)cc1 | active: 3.66 µM | 

Row | Structure (SMILES) | Potency | activity, positive = re-replication
25 | CC(C)c1ccc(C2(O)C(=O)Nc3cc(Br)ccc32)c(O)c1 (stereo not given) | inconclusive [activator, single point] | 
26 | Cc1cccc(-n2c(SCC(=O)N(C)C3CCS(=O)(=O)C3)nc3ccccc3c2=O)c1C (stereo not given) | inactive | 
27 | O=C(NCC(=O)N(c1cccnc1)C(C(=O)NC1CCCC1)c1cccs1)c1ccco1 (stereo not given) | inconclusive [activator, single point] | 
28 | CCCn1c(SCC(=O)N2CCCCC2)nnc1-c1ccco1 | inconclusive [activator, single point] | 
29 | Cc1ccc(OCC(=O)N2CCc3ccccc32)c([N+](=O)[O-])n1 | inactive | 
30 | O=C(COc1ccc(Br)cc1Cl)NNC(=O)c1ccccc1 | inactive | 
31 | CCC1(C)N=C(c2ccc3c(c2)OCO3)CC(c2ccccc2O)N1 (stereo not given) | active: 7.31 µM | 
32 | O=c1c2ccc([N+](=O)[O-])cc2ncn1CCOc1ccc(Cl)cc1 | inconclusive [activator, partial curve, poor fit] | 
33 | COc1ccc(NC(=O)CN2C(=O)c3cccc4cccc2c34)cc1OC | inconclusive [activator, single point] | 
34 | N/C(=N/OC(=O)c1cccc([N+](=O)[O-])c1)c1cccc([N+](=O)[O-])c1 | inconclusive [activator, partial curve, poor fit] | 
35 | COc1ccc(CN2CCSCC2)cc1C | inactive | 
36 | Cc1cccc2cc(CN(CCCN(C)C)C(=S)NCCc3ccccc3)c(=O)[nH]c12 | inactive | 
37 | CCCCOC(=O)Nc1ccccc1C(=O)N1CCCC1 | inconclusive [activator, partial curve, poor fit] | 
38 | CC(C)Sc1nc2ccc(N3C(=O)C4CCCCC4C3=O)cc2s1 (stereo not given) | inactive | 
39 | COc1ccc(/C=N/NC(=O)c2ccc(=O)n(C)c2)cc1OC | inactive | 
40 | Cc1ccc2nsnc2c1NC(=O)Cc1ccc(Cl)cc1 | inactive | 
41 | Cc1cc(C)cc(N2C(=O)CC(Sc3nnnn3-c3ccccc3)C2=O)c1 (stereo not given) | inconclusive [activator, full curve, poor fit] | 
42 | COC(=O)Sc1nc(N2CCOCC2)c2c(c1C#N)CC(C)(C)OC2 | inconclusive [activator, partial curve, poor fit] | 
43 | C(=N\Nc1nc(Nc2ccccc2)nc(Nc2ccccc2)n1)/c1cccnc1 | inconclusive [activator, partial curve, poor fit] | 
44 | Cc1cc(C)c(-n2c(SCCS(=O)(=O)c3ccc(F)cc3)n[nH]c2=O)c(C)c1 | inconclusive [activator, single point] | 
45 | Cc1ccc(S(=O)(=O)N(c2cccc(C(F)(F)F)c2)C2C=CS(=O)(=O)C2)cc1 (stereo not given) | active: 23.1 µM | 
46 | COc1ccc(Cn2c(O)c(C=Nc3ccccc3C(=O)O)c3ccccc3c2=O)cc1 | inconclusive [activator, partial curve, poor fit] | 
47 | COc1ccc(OC(C)C(=O)Nc2ccc([N+](=O)[O-])cc2)cc1 (stereo not given) | inactive | 
48 | C=CC(=O)Nc1ccc(Br)cc1 | inconclusive [activator, single point] | 

Row | Structure (SMILES) | Potency | activity, positive = re-replication
49 | COc1ccc(N2CCN(CCNC(=O)CCS(=O)(=O)c3cccc4nsnc34)CC2)cc1 |  | inconclusive: 100% [activator]
50 | Cc1cc(C(=O)Nc2ccccc2)oc(=O)c1 | inconclusive [activator, full curve, poor fit] | 
51 | O=C1NCN(c2ccccc2)C12CCN(CCCC(c1ccc(F)cc1)c1ccc(F)cc1)CC2 | active: 26.6 µM | 
52 | O=C(Nc1cc(C2CC2)nn1-c1ccccc1)c1ccc(F)cc1 | inactive | 
53 | O=C(C1CC(c2ccccc2O)=NO1)N1CCc2ccccc2C1 (stereo not given) | inactive | 
54 | Oc1ccc2ccccc2c1N=Nc1ccccn1 | inconclusive [activator, full curve] | 
55 | Cc1nc2ccccc2nc(=O)c1NNc1ccccc1 | inconclusive [activator, single point] | 
56 | N#C/C(=C\c1ccc(O)c([N+](=O)[O-])c1)C(=O)NCc1ccccc1 | inconclusive [activator, single point] | 
57 | S=C1NC(c2ccccc2)=NCN1c1ccc(Br)cc1 | inconclusive [activator, single point] | 
58 | Oc1ccc(-c2csc(-c3c[nH]c4ccccc34)n2)c(O)c1 | inconclusive [activator, single point] | 
59 | CC(=O)Nc1cccc(NC(=O)CSc2nc(=O)n3cccc(C)c3n2)c1 | inactive | 
60 | Cn1c(SCC(=O)N2CCCC2)nc2ccccc21 | inactive | 
61 | O=C(COc1ccc(Cl)cc1)N1CCN(C(=O)c2cccs2)CC1 | inactive | 
62 | COc1cccc(C(=O)CC(=O)C(=O)Nc2ccc(C)cc2Cl)c1 | inconclusive [activator, single point] | 
63 | CC(C)(C)NC(=O)C(c1ccc(-c2ccccc2)cc1)N(C[C@H]1CC[C@@H]([C@@H]2CC[C@H](CO)O2)O1)C(=O)c1ccc(C(C)(C)C)cc1 (stereo not given in full) | inconclusive [activator, single point] | 
64 | CSc1ccc(CN(C)C(=O)CCNS(=O)(=O)c2ccc(C)c(C)c2)cc1 | inactive | 
65 | CCOc1ccc(NC(=O)CN(C)C(=O)CCC2CCCCC2)cc1OCC | inconclusive [activator, single point] | 
66 | COc1ccc(NC(=O)Cn2cnc3c(cnn3-c3ccc(C)c(C)c3)c2=O)c(OC)c1 | inconclusive [activator, single point] | 
67 | O=C(NCc1cccnc1)c1ccc(NC(=O)c2cccc([N+](=O)[O-])c2)cc1 | inconclusive [activator, single point] | 
68 | CCOC(=O)c1nn(-c2cccc(OC)c2)c2nc(Nc3ccccc3)cc(=O)n12 | inconclusive [activator, partial curve, poor fit] | 
69 | Cc1ccsc1C1NC(=O)c2ccccc2N1 (stereo not given) | inconclusive [activator, single point] | 
70 | CC(C)NC(=S)N/N=C/c1sc(N2CCCCC2)nc1-c1cccs1 | inconclusive [activator, single point] | 
